Measurements published in article PMC9911399, “Two distinct binding modes provide the RNA-binding protein RbFox with extraordinary sequence specificity”.
Where a chain is given by its changes, count along the chain named. The list shows a part of the results.

B1: CAGAGUU (DNA:RNA)
RNA: GGGAGACCGGAAUUCAGAUUGUCCCAGAGUUUUAAAUCCCGUCGUAGCCACCA
DNA 1: CAATCTGAATTCCGGTCTCCC
DNA 2: TGGTGGCTACGACGGGATT
B2: ACCCAGG (DNA:RNA)
RNA: GGGAGACCGGAAUUCAGAUUGUCCACCCAGGUUAAAUCCCGUCGUAGCCACCA
DNA 1: CAATCTGAATTCCGGTCTCCC
DNA 2: TGGTGGCTACGACGGGATT
B3: CGAACUU (DNA:RNA)
RNA: B1 RNA with A26G, G27A, G29C
DNA 1: CAATCTGAATTCCGGTCTCCC
DNA 2: TGGTGGCTACGACGGGATT
B4: CGACUAU (DNA:RNA)
RNA: B1 RNA with A26G, G27A, A28C, G29U, U30A
DNA 1: CAATCTGAATTCCGGTCTCCC
DNA 2: TGGTGGCTACGACGGGATT
B5: GGCAUUU (DNA:RNA)
RNA: B1 RNA with C25G, A26G, G27C, G29U
DNA 1: CAATCTGAATTCCGGTCTCCC
DNA 2: TGGTGGCTACGACGGGATT
B6: UCGUCUG (DNA:RNA)
RNA: B2 RNA with A25U, C27G, C28U, A29C, G30U
DNA 1: CAATCTGAATTCCGGTCTCCC
DNA 2: TGGTGGCTACGACGGGATT
B7: UUAGGCC (DNA:RNA)
RNA: B1 RNA with C25U, A26U, G27A, A28G, U30C, U31C
DNA 1: CAATCTGAATTCCGGTCTCCC
DNA 2: TGGTGGCTACGACGGGATT
B8: GCGAGUG (DNA:RNA)
RNA: B1 RNA with C25G, A26C, U31G
DNA 1: CAATCTGAATTCCGGTCTCCC
DNA 2: TGGTGGCTACGACGGGATT
B9: UCGCCGG (DNA:RNA)
RNA: B2 RNA with A25U, C27G, A29C
DNA 1: CAATCTGAATTCCGGTCTCCC
DNA 2: TGGTGGCTACGACGGGATT
B10: GAUGCAG (DNA:RNA)
RNA: B2 RNA with A25G, C26A, C27U, C28G, A29C, G30A
DNA 1: CAATCTGAATTCCGGTCTCCC
DNA 2: TGGTGGCTACGACGGGATT
B11: UCCGUAG (DNA:RNA)
RNA: B2 RNA with A25U, C28G, A29U, G30A
DNA 1: CAATCTGAATTCCGGTCTCCC
DNA 2: TGGTGGCTACGACGGGATT
B12: CCAGGAC (DNA:RNA)
RNA: B1 RNA with A26C, G27A, A28G, U30A, U31C
DNA 1: CAATCTGAATTCCGGTCTCCC
DNA 2: TGGTGGCTACGACGGGATT
B13: GCUCUUA (DNA:RNA)
RNA: B2 RNA with A25G, C27U, A29U, G30U, G31A
DNA 1: CAATCTGAATTCCGGTCTCCC
DNA 2: TGGTGGCTACGACGGGATT
B14: UUACAAG (DNA:RNA)
RNA: B2 RNA with A25U, C26U, C27A, G30A
DNA 1: CAATCTGAATTCCGGTCTCCC
DNA 2: TGGTGGCTACGACGGGATT
B15: ACGCAGC (DNA:RNA)
RNA: B2 RNA with C27G, G31C
DNA 1: CAATCTGAATTCCGGTCTCCC
DNA 2: TGGTGGCTACGACGGGATT
B16: CAUGUUG (DNA:RNA)
RNA: B1 RNA with G27U, A28G, G29U, U31G
DNA 1: CAATCTGAATTCCGGTCTCCC
DNA 2: TGGTGGCTACGACGGGATT
B17: AGCGUGC (DNA:RNA)
RNA: B2 RNA with C26G, C28G, A29U, G31C
DNA 1: CAATCTGAATTCCGGTCTCCC
DNA 2: TGGTGGCTACGACGGGATT
B18: CUCCGUG (DNA:RNA)
RNA: B2 RNA with A25C, C26U, A29G, G30U
DNA 1: CAATCTGAATTCCGGTCTCCC
DNA 2: TGGTGGCTACGACGGGATT
B19: UCCCCAU (DNA:RNA)
RNA: B2 RNA with A25U, A29C, G30A, G31U
DNA 1: CAATCTGAATTCCGGTCTCCC
DNA 2: TGGTGGCTACGACGGGATT
B20: UAGAACA (DNA:RNA)
RNA: B1 RNA with C25U, G29A, U30C, U31A
DNA 1: CAATCTGAATTCCGGTCTCCC
DNA 2: TGGTGGCTACGACGGGATT
B21: UCCUCGU (DNA:RNA)
RNA: B2 RNA with A25U, C28U, A29C, G31U
DNA 1: CAATCTGAATTCCGGTCTCCC
DNA 2: TGGTGGCTACGACGGGATT
B22: CAUUUUG (DNA:RNA)
RNA: B1 RNA with G27U, A28U, G29U, U31G
DNA 1: CAATCTGAATTCCGGTCTCCC
DNA 2: TGGTGGCTACGACGGGATT
B23: GACGACA (DNA:RNA)
RNA: B2 RNA with A25G, C26A, C28G, G30C, G31A
DNA 1: CAATCTGAATTCCGGTCTCCC
DNA 2: TGGTGGCTACGACGGGATT
B24: UUCGGUA (DNA:RNA)
RNA: B1 RNA with C25U, A26U, G27C, A28G, U31A
DNA 1: CAATCTGAATTCCGGTCTCCC
DNA 2: TGGTGGCTACGACGGGATT
B25: GAUGUUA (DNA:RNA)
RNA: B1 RNA with C25G, G27U, A28G, G29U, U31A
DNA 1: CAATCTGAATTCCGGTCTCCC
DNA 2: TGGTGGCTACGACGGGATT
B26: CAAUAGU (DNA:RNA)
RNA: B1 RNA with G27A, A28U, G29A, U30G
DNA 1: CAATCTGAATTCCGGTCTCCC
DNA 2: TGGTGGCTACGACGGGATT
B27: UGCGAAU (DNA:RNA)
RNA: B2 RNA with A25U, C26G, C28G, G30A, G31U
DNA 1: CAATCTGAATTCCGGTCTCCC
DNA 2: TGGTGGCTACGACGGGATT
B28: AGGAGGU (DNA:RNA)
RNA: B1 RNA with C25A, A26G, U30G
DNA 1: CAATCTGAATTCCGGTCTCCC
DNA 2: TGGTGGCTACGACGGGATT
B29: GCACUUU (DNA:RNA)
RNA: B2 RNA with A25G, C27A, A29U, G30U, G31U
DNA 1: CAATCTGAATTCCGGTCTCCC
DNA 2: TGGTGGCTACGACGGGATT
B30: GCGAGGA (DNA:RNA)
RNA: B1 RNA with C25G, A26C, U30G, U31A
DNA 1: CAATCTGAATTCCGGTCTCCC
DNA 2: TGGTGGCTACGACGGGATT
B31: UCCGCCA (DNA:RNA)
RNA: B2 RNA with A25U, C28G, A29C, G30C, G31A
DNA 1: CAATCTGAATTCCGGTCTCCC
DNA 2: TGGTGGCTACGACGGGATT

Target: T1, RBFOX1 RRM (Homo sapiens, UniProt Q9NWB1 109-208)
T1 sequence: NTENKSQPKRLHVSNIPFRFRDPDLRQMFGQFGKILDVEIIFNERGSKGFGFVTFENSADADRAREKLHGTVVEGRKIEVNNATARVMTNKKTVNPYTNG
Assay: EMSA; HiTS-Eq, 1 nM pool, 10 min; buffer printed only for the single-RNA assays: 10 mM Tris pH 7.5, 150 mM NaCl, 3.4 mM EDTA, 0.001% NP-40, 30 C
Details: tags: His6 N-terminal (pET28a); label: 5' 32P
How it was run: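 A pool of RNA with 7 randomized nucleotides, 5′-radiolabelled and with DNA-annealed flanks, was equilibrated at 1 nM for 10 min in 50 µL with purified RbFox RRM, wild type or mutant, across increasing protein concentrations. Free RNA was separated by 8% native PAGE, excised, reverse-transcribed, barcoded by PCR and sequenced. Relative association constants were obtained from read-count changes of each RNA species versus the control reaction and normalised to the cognate motif.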

First: B1
Second: B2
The binding signal of the first is higher: 0.00743 KA relative to UGCAUGU for the first, 0.00495 KA relative to UGCAUGU for the second.

First: B3
Second: B4
The binding signal of the first is higher: 0.00603 KA relative to UGCAUGU for the first, 0.0034 KA relative to UGCAUGU for the second.

First: B5
Second: B6
The binding signal of the first is lower: 0.00992 KA relative to UGCAUGU for the first, 0.0174 KA relative to UGCAUGU for the second.

Compared with B7, B8 is higher in binding signal: 0.0133 KA relative to UGCAUGU for the first, 0.0264 KA relative to UGCAUGU for the second.

First: B9
Second: B10
The binding signal of the first is lower: 0.0169 KA relative to UGCAUGU for the first, 0.0176 KA relative to UGCAUGU for the second.

Compared with B11, B12 is lower in binding signal: 0.00757 KA relative to UGCAUGU for the first, 0.00714 KA relative to UGCAUGU for the second.

First: B13
Second: B14
The binding signal of the first is lower: 0.00619 KA relative to UGCAUGU for the first, 0.00798 KA relative to UGCAUGU for the second.

Compared with B15, B16 is higher in binding signal: 0.00735 KA relative to UGCAUGU for the first, 0.0132 KA relative to UGCAUGU for the second.

First: B17
Second: B18
The binding signal of the first is higher: 0.023 KA relative to UGCAUGU for the first, 0.0111 KA relative to UGCAUGU for the second.

Compared with B19, B20 is higher in binding signal: 0.000747 KA relative to UGCAUGU for the first, 0.00656 KA relative to UGCAUGU for the second.

First: B21
Second: B22
The binding signal of the first is lower: 0.00697 KA relative to UGCAUGU for the first, 0.0141 KA relative to UGCAUGU for the second.

First: B23
Second: B24
The binding signal of the first is lower: 0.00401 KA relative to UGCAUGU for the first, 0.012 KA relative to UGCAUGU for the second.

First: B25
Second: B26
The binding signal of the first is higher: 0.00976 KA relative to UGCAUGU for the first, 0.000926 KA relative to UGCAUGU for the second.

First: B27
Second: B28
The binding signal of the first is lower: 0.0154 KA relative to UGCAUGU for the first, 0.0162 KA relative to UGCAUGU for the second.

First: B29
Second: B30
The binding signal of the first is higher: 0.00914 KA relative to UGCAUGU for the first, 0.00797 KA relative to UGCAUGU for the second.

For B31, the binding signal was 0.0057 KA relative to UGCAUGU.
